In US10273244B2, “Substituted hexahydropyrrolo[3,4-b]pyrroles and hexahydrocyclopenta[c]pyrroles as dopamine receptor modulators” (INDIVIOR UK LIMITED, priority 2015, dated 2019):
Like-named read-outs stand apart in the source and are kept apart here.

Target: human dopamine type 3 receptor (CHO-hD3 membranes) (Homo sapiens (Human), UniProt P35462)
[1] = displacement of 0.3 nM [3H]-Spiperone

Sequence of UniProt P35462 (P35462 whole entry): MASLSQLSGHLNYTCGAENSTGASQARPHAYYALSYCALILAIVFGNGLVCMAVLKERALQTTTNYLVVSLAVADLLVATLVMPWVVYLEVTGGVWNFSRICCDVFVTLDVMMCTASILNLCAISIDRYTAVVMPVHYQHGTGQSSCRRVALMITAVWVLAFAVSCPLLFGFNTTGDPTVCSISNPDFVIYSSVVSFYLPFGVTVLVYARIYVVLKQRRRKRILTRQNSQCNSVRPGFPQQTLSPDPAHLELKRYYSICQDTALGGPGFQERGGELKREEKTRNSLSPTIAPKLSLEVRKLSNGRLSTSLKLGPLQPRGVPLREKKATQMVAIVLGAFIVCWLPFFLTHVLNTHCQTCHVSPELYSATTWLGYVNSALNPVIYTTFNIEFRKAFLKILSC

D3 pKi [1]	SMILES	D3 pKi
8.45	Cn1nccc1-c1nnc(SCCCN2CC3CCN(c4ccccc4C(F)(F)F)C3C2)n1C (centres unmarked) [Example 185, 4-methyl-3-(1-methyl-1H-pyrazol-5-yl)-5-[(3-{1-[2-(trifluoromethyl)phenyl]-octahydropyrrolo[3,4-b]pyrrol-5-yl}propyl)sulfanyl]-4H-1,2,4-triazole]	
8.25	Cn1c(SCCCN2CC3CCN(c4ccccc4C(F)(F)F)C3C2)nnc1-c1ccncc1 (centres unmarked) [Example 155, 4-{4-methyl-5-[(3-{1-[2-(trifluoromethyl)phenyl]-octahydropyrrolo[3,4-b]pyrrol-5-yl}propyl)sulfanyl]-4H-1,2,4-triazol-3-yl}pyridine]	
8.13	Cn1c(SCCCN2CC3CCN(c4ccc(C(F)(F)F)cc4)C3C2)nnc1-c1cc[nH]c(=O)c1 (centres unmarked) [Example 165, 4-{4-methyl-5-[(3-{1-[4-(trifluoromethyl)phenyl]-octahydropyrrolo[2,3-c]pyrrol-5-yl}propyl)sulfanyl]-4H-1,2,4-triazol-3-yl}-1,2-dihydropyridin-2-one]	
7.36	Cl.Cl.Cn1nccc1-c1nnc(SCCCN2C[C@H]3CCN(c4ccccc4C(F)(F)F)[C@H]3C2)n1C [Example 189, 3-({3-[(3aR,6aR or 3aS,6aS)-1-[2-(trifluoromethyl)phenyl]-octahydropyrrolo[3,4-b]pyrrol-5-yl]propyl}sulfanyl)-4-methyl-5-(1-methyl-1H-pyrazol-5-yl)-4H-1,2,4-triazole dihydrochloride]	
8.79	Cl.Cl.Cn1nccc1-c1nnc(SCCCN2C[C@@H]3CCN(c4ccccc4C(F)(F)F)[C@@H]3C2)n1C [Example 188, 3-({3-[(3aS,6aS or 3aR,6aR)-1-[2-(trifluoromethyl)phenyl]-octahydropyrrolo[3,4-b]pyrrol-5-yl]propyl}sulfanyl)-4-methyl-5-(1-methyl-1H-pyrazol-5-yl)-4H-1,2,4-triazole dihydrochloride]	
7.66	Cn1c(SCCCN2CC3CCN(c4c(F)cccc4F)C3C2)nnc1-c1cc[nH]c(=O)c1 (centres unmarked) [Example 173, 4-[5-({3-[1-(2,6-difluorophenyl)-octahydropyrrolo[3,4-b]pyrrol-5-yl]propyl}sulfanyl)-4-methyl-4H-1,2,4-triazol-3-yl]-1,2-dihydropyridin-2-one]	
9.28	Cn1c(SCCCN2CC3CCN(c4ccc(F)cc4)C3C2)nnc1-c1ccc(C(N)=O)nc1 (centres unmarked) [Example 198, 5-[5-({3-[1-(4-fluorophenyl)-octahydropyrrolo[3,4-b]pyrrol-5-yl]propyl}sulfanyl)-4-methyl-4H-1,2,4-triazol-3-yl]pyridine-2-carboxamide]	
8.26	Cc1ncsc1-c1nnc(SCCCN2CC3CCN(c4ccc(C(F)(F)F)cc4)C3C2)n1C (centres unmarked) [Example 164, 4-methyl-3-(4-methyl-1,3-thiazol-5-yl)-5-[(3-{1-[4-(trifluoromethyl)phenyl]-octahydropyrrolo[3,4-b]pyrrol-5-yl}propyl)sulfanyl]-4H-1,2,4-triazole]	
7.62	Cl.Cl.Cl.Cn1c(SCCCN2C[C@H]3CCN(c4ccccc4C(F)(F)F)[C@H]3C2)nnc1-c1ccncc1 [Example 159, 4-[5-({3-[(3aR,6aR or 3aS,6aS)-1-[2-(trifluoromethyl)phenyl]-octahydropyrrolo[3,4-b]pyrrol-5-yl]propyl}sulfanyl)-4-methyl-4H-1,2,4-triazol-3-yl]pyridine trihydrochloride]	
8.19	Cn1c(SCCCN2C[C@@H]3CCN(c4ccc(C(F)(F)F)cc4)[C@@H]3C2)nnc1-c1ccc(=O)n(C)c1 [Example 193, 5-[5-({3-[(3aS,6aS or 3aR,6aR)-1-[4-(trifluoromethyl)phenyl]-octahydropyrrolo[3,4-b]pyrrol-5-yl]propyl}sulfanyl)-4-methyl-4H-1,2,4-triazol-3-yl]-1-methyl-1,2-dihydropyridin-2-one]	
8.85	Cn1c(SCCCN2CC3CCN(c4c(F)cccc4F)C3C2)nnc1-c1ccc(C(N)=O)nc1 (centres unmarked) [Example 201, 5-[5-({3-[1-(2,6-difluorophenyl)-octahydropyrrolo[3,4-b]pyrrol-5-yl]propyl}sulfanyl)-4-methyl-4H-1,2,4-triazol-3-yl]pyridine-2-carboxamide]	
7.84	Cn1c(SCCCN2CC3CCN(c4c(F)cccc4F)C3C2)nnc1-c1ccc(=O)[nH]c1 (centres unmarked) [Example 177, 5-[5-({3-[1-(2,6-difluorophenyl)-octahydropyrrolo[3,4-b]pyrrol-5-yl]propyl}sulfanyl)-4-methyl-4H-1,2,4-triazol-3-yl]-1,2-dihydropyridin-2-one]	
8.09	Cn1c(SCCCN2CC3CCN(c4ccc(F)cc4)C3C2)nnc1-c1ccn(C)c(=O)c1 (centres unmarked) [Example 207, 4-[5-({3-[1-(4-fluorophenyl)-octahydropyrrolo[3,4-b]pyrrol-5-yl]propyl}sulfanyl)-4-methyl-4H-1,2,4-triazol-3-yl]-1-methyl-1,2-dihydropyridin-2-one]	
8.07	Cn1c(SCCCN2C[C@@H]3CCN(c4ccc(C(F)(F)F)cc4)[C@@H]3C2)nnc1-c1cc[nH]c(=O)c1 [Example 167, 4-[5-({3-[(3aR,6aR or 3aS,6aS)-1-[4-(trifluoromethyl)phenyl]-octahydropyrrolo[2,3-c]pyrrol-5-yl]propyl}sulfanyl)-4-methyl-4H-1,2,4-triazol-3-yl]-1,2-dihydropyridin-2-one]	

Continued, molecule first:

SMILES	D3 pKi [1]	D3 pKi
Cl.Cl.Cl.Cn1c(SCCCN2C[C@@H]3CCN(c4ccc(C(F)(F)F)cc4)[C@@H]3C2)nnc1-c1cccnc1 [Example 144, 3-[5-({3-[(3aS,6aS or 3aR,6aR)-1-[4-(trifluoromethyl)phenyl]-octahydropyrrolo[3,4-b]pyrrol-5-yl]propyl}sulfanyl)-4-methyl-4H-1,2,4-triazol-3-yl]pyridine trihydrochloride]	8.15	
Cn1c(SCCCN2CC3CCN(c4ccc(C(F)(F)F)cc4)C3C2)nnc1-c1cccnc1 (centres unmarked) [Example 141, 3-{4-methyl-5-[(3-{1-[4-(trifluoromethyl)phenyl]-octahydropyrrolo[3,4-b]pyrrol-5-yl}propyl)sulfanyl]-4H-1,2,4-triazol-3-yl}pyridine]	8.45	
Cn1c(SCCCN2CC3CCN(c4ccc(C(F)(F)F)cc4)C3C2)nnc1-c1ccncc1 (centres unmarked) [Example 153, 4-{4-methyl-5-[(3-{1-[4-(trifluoromethyl)phenyl]-octahydropyrrolo[3,4-b]pyrrol-5-yl}propyl)sulfanyl]-4H-1,2,4-triazol-3-yl}pyridine]	8.73	
Cn1c(SCCCN2C[C@H]3CCN(c4ccc(F)cc4)[C@H]3C2)nnc1-c1ccc(C(N)=O)nc1 [Example 200, 5-[5-({3-[(3aR,6aR or 3aS,6aS)-1-(4-fluorophenyl)-octahydropyrrolo[3,4-b]pyrrol-5-yl]propyl}sulfanyl)-4-methyl-4H-1,2,4-triazol-3-yl]pyridine-2-carboxamide]		8.75
COc1cc(N2CC[C@@H]3CN(CCCSc4nnc(-c5cnccn5)n4C)C[C@@H]32)ccc1F.Cl.Cl.Cl [Example 129, 2-[5-({3-[(3aR,6aR or 3aS,6aS)-1-(4-fluoro-3-methoxyphenyl)-octahydropyrrolo[3,4-b]pyrrol-5-yl]propyl}sulfanyl)-4-methyl-4H-1,2,4-triazol-3-yl]pyrazine trihydrochloride]	8.49	
Cn1c(SCCCN2C[C@H]3CCN(c4c(F)cc(F)cc4F)[C@H]3C2)nnc1-c1ccc(C(N)=O)nc1 [Example 206, 5-[5-({3-[(3aR,6aR or 3aS,6aS)-1-(2,4,6-trifluorophenyl)-octahydropyrrolo[2,3-c]pyrrol-5-yl]propyl}sulfanyl)-4-methyl-4H-1,2,4-triazol-3-yl]pyridine-2-carboxamide]		8.32
CC(C)Oc1ccccc1N1CC[C@H]2CN(CCCSc3nnc(-c4cnccn4)n3C)C[C@H]21.Cl.Cl [Example 118, 2-[5-({3-[(3aS,6aS or 3aR,6aR)-1-[2-(propan-2-yloxy)phenyl]-octahydropyrrolo[3,4-b]pyrrol-5-yl]propyl}sulfanyl)-4-methyl-4H-1,2,4-triazol-3-yl]pyrazine dihydrochloride]	7.23	
Cn1c(SCCCN2C[C@H]3CCN(c4ccc(C(F)(F)F)cc4)[C@H]3C2)nnc1-c1ccc(C(N)=O)nc1 [Example 197, 5-[5-({3-[(3aR,6aR or 3aS,6aS)-1-[4-(trifluoromethyl)phenyl]-octahydropyrrolo[3,4-b]pyrrol-5-yl]propyl}sulfanyl)-4-methyl-4H-1,2,4-triazol-3-yl]pyridine-2-carboxamide]		9.03
Cl.Cl.Cn1c(SCCCN2CC3CCN(c4c(F)cc(F)cc4F)C3C2)nnc1-c1cnccn1 (centres unmarked) [Example 133, 2-[4-methyl-5-({3-[1-(2,4,6-trifluorophenyl)-octahydropyrrolo[2,3-c]pyrrol-5-yl]propyl}sulfanyl)-4H-1,2,4-triazol-3-yl]pyrazine dihydrochloride]	8.97	
Cc1ncoc1-c1nnc(SCCCN2CC3CCN(c4ccc(C(F)(F)F)cc4)C3C2)n1C.Cl.Cl (centres unmarked) [Example 2, 4-methyl-3-(4-methyl-1,3-oxazol-5-yl)-5-[(3-{1-[4-(trifluoromethyl)phenyl]octahydropyrrolo[3,4-b]pyrrol-5-yl}propyl)sulfanyl]-4H-1,2,4-triazole dihydrochloride]	8.76	
COc1cc(N2CC[C@H]3CN(CCCSc4nnc(-c5cnccn5)n4C)C[C@H]32)ccc1F.Cl.Cl.Cl [Example 128, 2-[5-({3-[(3aS,6aS or 3aR,6aR)-1-(4-fluoro-3-methoxyphenyl)-octahydropyrrolo[3,4-b]pyrrol-5-yl]propyl}sulfanyl)-4-methyl-4H-1,2,4-triazol-3-yl]pyrazine trihydrochloride]	8.56	
Cc1ncoc1-c1nnc(SCCCN2C[C@H]3CCN(c4ccc(C(F)(F)F)cc4)[C@H]3C2)n1C.Cl.Cl [Example 6, 3-({3-[(3aR,6aR or 3aS,6aS)-1-[4-(trifluoromethyl)phenyl]-octahydropyrrolo[2,3-c]pyrrol-5-yl]propyl}sulfanyl)-4-methyl-5-(4-methyl-1,3-oxazol-5-yl)-4H-1,2,4-triazole dihydrochloride]	8.54	
